The record followed here is a collection of fitness landscapes (doi:10.1126/science.1257360).

B1: PhoQ; a variant is named by its letters at X, in order, P23837 (parent)
chain: MKKLLRLFFPLSLRVRFLLATAAVVLVLSLAYGMVALIGYSVSFDKTTFRLLRGESNLFYTLAKWENNKLHVELPENIDKQSPTMTLIYDENGQLLWAQRDVPWLMKMIQPDWLKSNGFHEIEADVNDTSLLLSGDHSIQQQLQEVREDDDDAEMTHSVAVNVYPATSRMPKLTIVVVDTIPVELKSSYMVWSWFIYVLSANLLLVIPLLWVAAWWSLRPIEALAKEVRELEEHNRELLNPATTRELTSLVRNLNRLLKSERERYDKYRTTLTDLTHSLKTPLXXLQXXLRSLRSEKMSVSDAEPVMLEQISRISQQIGYYLHRASMRGGTLLSRELHPVAPLLDNLTSALNKVYQRKGVNISLDISPEISFVGEQNDFVEVMGNVLDNACKYCLEFVEISARQTDEHLYIVVEDDGPGIPLSKREVIFDRGQRVDTLRPGQGVGLAVAREITEQYEGKIVAGESMLGGARMEVIFGRQHSAPKDE

Some of the results follow. Bounds are passed on as bounds.

The variants in the assay derive from B1. Nature of the assay: enrichment ratio after two sorts for PhoP signalling (ratio (wild type AVST 3.29)); higher = more functional. The note with it: with PhoP (E. coli).
Take MGIG: the enrichment ratio is ≤ 0.25.
Under RINH stands ≤ 0.25; under CVSP, ≤ 0.25.
Under FYQF stands ≤ 0.25; under NYDY, ≤ 0.25; under IQWI, ≤ 0.25.
Under WWYS stands ≤ 0.25; under APHR, ≤ 0.25; under YLAP, ≤ 0.25.
RKHI: the enrichment ratio is ≤ 0.25.
VVLP: the enrichment ratio is ≤ 0.25.
The figure for DLWL is ≤ 0.25; for KARI it is ≤ 0.25; for DKMA it is ≤ 0.25.
Take YSAP: the enrichment ratio was ≤ 0.25.
Under YFMA stands ≤ 0.25; under TDSR, ≤ 0.25.
The figure for VCHQ is ≤ 0.25.
The figure for LQLS is ≤ 0.25.
Take EHVN: the enrichment ratio was ≤ 0.25.
As to NFHF, the enrichment ratio was ≤ 0.25.
Under LIYM stands ≤ 0.25; under VHFI, ≤ 0.25.
In the case of MDTT, the enrichment ratio was ≤ 0.25.
As for NRAI, the enrichment ratio was ≤ 0.25.
For the variant GTLT, the enrichment ratio turned out to be 3.12.
Under PKGC stands ≤ 0.25; under VVGR, ≤ 0.25; under MFDK, ≤ 0.25.
The figure for QRIR is ≤ 0.25.
For the variant YAHK, the enrichment ratio was ≤ 0.25.
On to TTPN, for which the enrichment ratio is ≤ 0.25.
The figure for PEFK is ≤ 0.25; for VQQA it is ≤ 0.25.
Under ANYP stands ≤ 0.25; under EEML, ≤ 0.25.
The figure for MFGD is ≤ 0.25; for HYFD it is ≤ 0.25.
With MIWY, the enrichment ratio was ≤ 0.25.
Under WPLT stands ≤ 0.25.
Consider YFWM, for which the enrichment ratio was ≤ 0.25.
Turning to MCHS, the enrichment ratio was ≤ 0.25.
In the case of TYDI, the enrichment ratio is ≤ 0.25.
On to ASQG, for which the enrichment ratio stood at 1.16.
The figure for VFKQ is ≤ 0.25; for FGQP it is ≤ 0.25; for PGGY it is ≤ 0.25.
As for IVKH, the enrichment ratio was ≤ 0.25.
Consider NHEM, for which the enrichment ratio is ≤ 0.25.
The figure for IRCF is ≤ 0.25.
The figure for NWMW is ≤ 0.25; for SRGC it is ≤ 0.25; for PIMS it is ≤ 0.25.
Under ESAT stands ≤ 0.25; under HHDM, ≤ 0.25.
For NQCL, the enrichment ratio is ≤ 0.25.
The figure for QNLC is ≤ 0.25; for HKKC it is ≤ 0.25.
Under WPIK stands ≤ 0.25; under ANLW, 9.25.
The figure for WAGH is ≤ 0.25.
On to KQLC, for which the enrichment ratio was ≤ 0.25.
On to MWRD, for which the enrichment ratio was ≤ 0.25.
The figure for RDAG is ≤ 0.25; for FFIS it is ≤ 0.25; for TGFN it is ≤ 0.25.
The figure for ETWR is ≤ 0.25; for KDSW it is ≤ 0.25.
As to TTER, the enrichment ratio was ≤ 0.25.
The figure for GYIG is ≤ 0.25; for NFHN it is ≤ 0.25.
Turning to WQSG, the enrichment ratio is ≤ 0.25.
Under EDFQ stands ≤ 0.25; under DYIT, ≤ 0.25.
Under KQSI stands ≤ 0.25.
On to SRHM, for which the enrichment ratio was ≤ 0.25.
Under PQVL stands ≤ 0.25.
For LSGK, the enrichment ratio is ≤ 0.25.
Turning to VWCM, the enrichment ratio is ≤ 0.25.
Under TVFP stands ≤ 0.25; under KNSQ, ≤ 0.25.
The figure for IHYQ is ≤ 0.25.
As to DTQM, the enrichment ratio is ≤ 0.25.
For the variant HLIW, the enrichment ratio is ≤ 0.25.
Consider KREL, for which the enrichment ratio was ≤ 0.25.
Regarding QRYS, the enrichment ratio was ≤ 0.25.
For the variant LRKP, the enrichment ratio is ≤ 0.25.
Under EYYM stands ≤ 0.25.
The figure for ELMW is ≤ 0.25; for TWPP it is ≤ 0.25; for GLPQ it is ≤ 0.25.
Under CIFA stands ≤ 0.25; under STHD, ≤ 0.25.
For SDQW, the enrichment ratio is ≤ 0.25.
For MGAA, the enrichment ratio came out at 6.5.
Regarding VWRG, the enrichment ratio was ≤ 0.25.
Under VGQH stands ≤ 0.25; under YNNY, ≤ 0.25; under GLKY, ≤ 0.25.
For the variant LAGQ, the enrichment ratio is ≤ 0.25.
In the case of HNAV, the enrichment ratio was ≤ 0.25.
Under DNMH stands ≤ 0.25; under EMDW, ≤ 0.25; under SQCT, 10.1.
Regarding TTFW, the enrichment ratio is ≤ 0.25.
Take DVMF: the enrichment ratio is ≤ 0.25.
Under PLSM stands ≤ 0.25.
The figure for MLRQ is ≤ 0.25.
With IHKH, the enrichment ratio was ≤ 0.25.
On to HFWF, for which the enrichment ratio is ≤ 0.25.
As for WNYN, the enrichment ratio was ≤ 0.25.
The figure for LYNV is ≤ 0.25.
Turning to WYTG, the enrichment ratio was ≤ 0.25.
As for AHDM, the enrichment ratio was ≤ 0.25.
With RKVC, the enrichment ratio is ≤ 0.25.
The figure for LSTL is ≤ 0.25.
The figure for WQTF is ≤ 0.25.
Consider SQPL, for which the enrichment ratio was ≤ 0.25.
Under TCVY stands ≤ 0.25; under FDLH, ≤ 0.25; under PNLT, ≤ 0.25.
Under TQII stands 15.7.
Regarding YTGG, the enrichment ratio was ≤ 0.25.
Take DNPM: the enrichment ratio was ≤ 0.25.
For the variant YLPN, the enrichment ratio was ≤ 0.25.
Under ECYN stands 0.622; under VLRK, ≤ 0.25; under IGVV, ≤ 0.25.
The figure for WKNL is ≤ 0.25; for VFSR it is ≤ 0.25.
As to FHYP, the enrichment ratio is ≤ 0.25.
As to KGMF, the enrichment ratio was ≤ 0.25.
With ECIW, the enrichment ratio was ≤ 0.25.
Under ESNL stands ≤ 0.25.
Under GQME stands 6.91; under ICTV, ≤ 0.25.
Regarding AQYH, the enrichment ratio is ≤ 0.25.
Under EHCS stands ≤ 0.25.
Under QYGD stands ≤ 0.25; under GTVF, 5.57; under VLLW, ≤ 0.25.
Turning to WYQF, the enrichment ratio is ≤ 0.25.
QQFC: the enrichment ratio is 5.39.
Under WKLI stands ≤ 0.25.
Under NLQL stands ≤ 0.25; under THTS, 1.63; under YPIT, ≤ 0.25.
As for WYTR, the enrichment ratio was ≤ 0.25.
As for RSYK, the enrichment ratio is ≤ 0.25.
In the case of EDFY, the enrichment ratio is ≤ 0.25.
The figure for YHTH is ≤ 0.25; for GWYL it is ≤ 0.25; for NPYF it is ≤ 0.25.
